Structures are written as SMILES. Where a name gives a salt, the structure may show the parent alone. This is one part of the list. Repeats are few or missing, and single values can be far off.
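Also: monoclonal Beas-2B line stably carrying CMV promoter-driven AQP5-HiBiT, 5,000 cells per well in 384-well plates, lytic HiBiT plus LgBiT NanoLuc luminescence, FDA-approved drug library screen.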

The test system of the test is Beas-2B AQP5-HiBiT reporter cells. The test can be described thus: AQP5-HiBiT luminescence relative to vehicle (ratio to vehicle); higher = higher AQP5-HiBiT protein abundance. As to conditions: 10 µM; 18 h. (In general: HiBiT is a short tag that completes a luciferase, so light tracks the accessible tagged protein.)
For the molecule `NCCCC(N)(C(=O)O)C(F)F` (stereo not given) [Eflornithine hydrochloride Monohydrate], the AQP5-HiBiT luminescence turned out to be 0.521.
`COc1ccccc1OCC(O)COC(N)=O` (stereo not given) [Methocarbamol]: the AQP5-HiBiT luminescence turned out to be 0.888.
Take `NS(=O)(=O)c1cc(C2(O)NC(=O)c3ccccc32)ccc1Cl` (stereo not given) [Chlortalidone]: the AQP5-HiBiT luminescence was found to be 1.23.
Take `Cc1onc(-c2ccccc2Cl)c1C(=O)N[C@@H]1C(=O)N2[C@@H]1SC(C)(C)[C@@H]2C(=O)O` [Cloxacillin sodium monohydrate]: the AQP5-HiBiT luminescence came to 0.975.
With `CC(=O)Oc1ccc(C(c2ccc(OC(C)=O)cc2)c2ccccn2)cc1` [Bisacodyl], the AQP5-HiBiT luminescence stood at 0.875.
In the case of `COc1cccc(OC)c1C(=O)N[C@@H]1C(=O)N2[C@@H]1SC(C)(C)[C@@H]2C(=O)O` [Methicillin sodium], the AQP5-HiBiT luminescence was determined as 1.04.
`CC[C@]1(O)C[C@@H]2CN(CCc3c([nH]c4ccccc34)[C@@](C(=O)OC)(c3cc4c(cc3OC)N(C)[C@H]3[C@@](O)(C(=O)OC)[C@H](OC(C)=O)[C@]5(CC)C=CCN6CC[C@]43[C@@H]65)C2)C1` [Vinblastine sulfate]: the AQP5-HiBiT luminescence came to 2.71.
As for `CCCN1CCCC[C@H]1C(=O)Nc1c(C)cccc1C` [Ropivacaine hydrochloride], the AQP5-HiBiT luminescence was 0.959.
Consider `COC(=O)C1=C(C)NC(C)=C(C(=O)OCCN(C)Cc2ccccc2)C1c1cccc([N+](=O)[O-])c1` (stereo not given) [Nicardipine hydrochloride], for which the AQP5-HiBiT luminescence was found to be 1.03.
Take `CN[C@H](CC(C)C)C(=O)N[C@H]1C(=O)N[C@@H](CC(N)=O)C(=O)N[C@H]2C(=O)N[C@H]3C(=O)N[C@H](C(=O)N[C@H](C(=O)O)c4cc(O)cc(O)c4-c4cc3ccc4O)[C@H](O)c3ccc(c(Cl)c3)Oc3cc2cc(c3O[C@@H]2O[C@H](CO)[C@@H](O)[C@H](O)[C@H]2O[C@H]2C[C@](C)(N)[C@H](O)[C@H](C)O2)Oc2ccc(cc2Cl)[C@H]1O` [Vancomycin hydrochloride]: the AQP5-HiBiT luminescence came to 0.978.
For the molecule `C[C@]1(Cn2ccnn2)[C@H](C(=O)O)N2C(=O)C[C@H]2S1(=O)=O` [Tazobactam acid], the AQP5-HiBiT luminescence turned out to be 1.05.
Under `O.O=[Si]=O.O=[Si]=O.O=[Si]=O.O=[Si]=O.[O]=[Mg].[O]=[Mg].[O]=[Mg]` stands 0.71; under `O=C[C@H](O)[C@@H](O)[C@H](O)CO` (racemic) [DL-Xylose], 0.769; under `Cc1noc(NS(=O)(=O)c2ccc(N)cc2)c1C` [Sulfisoxazole], 1.16.
As to `CCC1(C)CC(=O)NC1=O` (stereo not given) [Ethosuximide], the AQP5-HiBiT luminescence was 0.861.
Regarding `CN1CCC(OC(c2ccccc2)c2ccccc2)CC1` [Diphenylpyraline hydrochloride], the AQP5-HiBiT luminescence came out at 0.872.
For the molecule `C[C@H](N)[C@H](O)c1cccc(O)c1` [Metaraminol bitartrate], the AQP5-HiBiT luminescence stood at 0.735.
For `Cc1ccc(=O)n(-c2ccccc2)c1` [Pirfenidone], the AQP5-HiBiT luminescence came out at 0.799.
On to `Cc1cc(C#N)cc(C)c1Oc1nc(Nc2ccc(C#N)cc2)nc(N)c1Br` [Etravirine (TMC125)], for which the AQP5-HiBiT luminescence was 0.885.
Regarding `C[C@@H]1C[C@H]2[C@@H]3CCC4=CC(=O)C=C[C@]4(C)[C@@]3(Cl)[C@@H](O)C[C@]2(C)[C@@]1(OC(=O)c1ccco1)C(=O)CCl` [Mometasone furoate], the AQP5-HiBiT luminescence is 3.6.
`CCCCc1nc(Cl)c(CO)n1Cc1ccc(-c2ccccc2-c2nnn[nH]2)cc1` [Losartan potassium]: the AQP5-HiBiT luminescence is 0.734.
On to `CC(C)Cn1cnc2c(N)nc3ccccc3c21` [Imiquimod], for which the AQP5-HiBiT luminescence was 0.786.
As to `C=CC(N)CCC(=O)O` (stereo not given) [Vigabatrin], the AQP5-HiBiT luminescence was 1.05.
Turning to `CC1=C(C/C=C(\C)CCC[C@H](C)CCC[C@H](C)CCCC(C)C)C(=O)c2ccccc2C1=O` [Vitamin K1], the AQP5-HiBiT luminescence is 1.06.
Under `COc1cc2nccc(Oc3ccc(NC(=O)NC4CC4)c(Cl)c3)c2cc1C(N)=O` [Lenvatinib (E7080)] stands 0.288; under `CC[C@H]1OC(=O)[C@H](C)[C@@H](O[C@H]2C[C@@](C)(OC)[C@@H](O)[C@H](C)O2)[C@H](C)[C@@H](O[C@@H]2O[C@H](C)C[C@H](N(C)C)[C@H]2O)[C@](C)(O)C[C@@H](C)[C@@H]2N[C@@H](COCCOC)O[C@H]([C@H]2C)[C@]1(C)O` [Dirithromycin], 0.895; under `C[C@@H](Oc1cc(-c2cnn(C3CCNCC3)c2)cnc1N)c1c(Cl)ccc(F)c1Cl`, 2.61.
Consider `CC(C)(O)c1ccccc1CC[C@@H](SCC1(CC(=O)O)CC1)c1cccc(/C=C/c2ccc3ccc(Cl)cc3n2)c1` [Montelukast sodium], for which the AQP5-HiBiT luminescence came to 0.861.
As for `CNC(=O)c1cc(Oc2ccc(NC(=O)Nc3ccc(Cl)c(C(F)(F)F)c3)c(F)c2)ccn1` [Regorafenib (BAY 73-4506)], the AQP5-HiBiT luminescence is 0.255.
For the molecule `Cc1nc2c([nH]1)-c1ccccc1N(C(=O)c1ccc(NC(=O)c3ccccc3-c3ccccc3)cc1)CC2` [Conivaptan hydrochloride], the AQP5-HiBiT luminescence was 1.17.
The result for `S=P(N1CC1)(N1CC1)N1CC1` [Triethylenethiophosphoramide] reads 1.02; that for `CC[C@H]1OC(=O)[C@H](C)[C@@H](O[C@H]2C[C@@](C)(OC)[C@@H](O)[C@H](C)O2)[C@H](C)[C@@H](O[C@@H]2O[C@H](C)C[C@H](N(C)C)[C@H]2O)[C@](C)(O)C[C@@H](C)CN(C)[C@H](C)[C@@H](O)[C@]1(C)O` [Azithromycin], 1.22.
As to `CC/C(=C(\c1ccccc1)c1ccc(OCCN(C)C)cc1)c1ccccc1` [Tamoxifen citrate], the AQP5-HiBiT luminescence stood at 0.834.
Under `C[N+]1(C)[C@@H]2CC[C@H]1C[C@@H](OC(=O)C(O)c1ccccc1)C2` (stereo not given in full) [Homatropine Methylbromide] stands 0.95.
The result for `Nc1ccn([C@@H]2O[C@H](CO)[C@@H](O)C2(F)F)c(=O)n1` [Gemcitabine] reads 0.568; that for `COc1ccc2[nH]c([S+]([O-])Cc3ncc(C)c(OC)c3C)nc2c1` (stereo not given) [Omeprazole], 0.841.
The result for `O=c1ccc2ccc(OCCCCN3CCN(c4cccc5sccc45)CC3)cc2[nH]1` [Brexpiprazole] reads 1.14; that for `CCCCC(=O)N(Cc1ccc(-c2ccccc2-c2nnn[nH]2)cc1)[C@H](C(=O)O)C(C)C` [Valsartan], 0.794; that for `C=C1c2c(Cl)ccc(O)c2C(O)=C2C(=O)[C@]3(O)C(O)=C(C(N)=O)C(=O)[C@@H](N(C)C)[C@@H]3[C@@H](O)[C@H]12.O=C(O)c1cc(S(=O)(=O)O)ccc1O` [Meclocycline sulfosalicylate salt], 0.531.
Take `Cc1cc(C2CCCCC2)n(O)c(=O)c1` [Ciclopirox]: the AQP5-HiBiT luminescence came out at 1.42.

The values are drawn from the supplement of paper PMC8821664.
